The source of these data is ChEMBL document CHEMBL4888484, “Replenishing the malaria drug discovery pipeline: Screening and hit evaluation of the MMV Hit Generation Library 1 (HGL1) against asexual blood stage Plasmodium falciparum ,using a nano luciferase reporter read-out” (2022).

Among all 150,000 compounds or so, about 540 (0.36%) showed an effect of 50% or more. The list shows a part of the results.

In this experiment the test system is Plasmodium falciparum. Nature of the experiment: Primary screen in NF54 nanoGlo assay, in single point, at 2uM, 72h; a lower Z score goes with more inhibition. Format: functional, Erythrocyte. As to conditions: timepoint 72 hour.
Take `N#CCc1cccc(NC(=O)NCc2cccc3c2CCNC3)c1`: the “% Inhibition” value is -14% and the Z score was found to be 1.5.

Consider `CC1=C(C)C[C@@H](C(=O)NS(=O)(=O)c2c(N)noc2C)CC1`, for which the “% Inhibition” value was found to be 4% and the Z score is given as -0.83.

As for `Cc1ccc(-c2noc(CN3CC[N+](C)(Cc4nc(-c5ccc(C)cc5)no4)CC3)n2)cc1`, the “% Inhibition” value stood at 7% and the Z score is -0.89.

Take `COc1ccc(CC(=O)N2CCc3nc(N4CCCC4)nc(N4CCCCC4)c3C2)cc1`: the “% Inhibition” value is -12% and the Z score was determined as 1.39.

In the case of `CCC1(CC)NC(=O)N(C[C@H](O)C(F)(F)F)C1=O`, the “% Inhibition” value is -18% and the Z score was found to be 1.98.

Take `Cc1nc(N[C@@H](C)Cn2cncn2)c2cccnc2n1`: the “% Inhibition” value was -9% and the Z score was 0.89.

`CCc1ccccc1NC(=O)CN1CCC[C@H](C(=O)Nc2cnccn2)C1`: the “% Inhibition” value was -8% and the Z score came out at 1.6.

For the compound `O=C(NCCc1c[nH]c2ccccc12)C1CN(c2nc3c(F)cccc3s2)C1`, the “% Inhibition” value is given as -4% and the Z score amounted to 0.61.

For `CN1CC(=O)N(CC(=O)N(Cc2ccccn2)Cc2ccco2)C1=O`, the “% Inhibition” value was 16% and the Z score is -2.86.

`NC[C@H]1CCCCN1C(=O)NCc1ccc(-c2cccc(Cl)c2)o1`: the “% Inhibition” value was 19% and the Z score is on record as -2.54.

Take `CNc1cc(C)nc(-c2ccc(C(=O)N(C)[C@@H](C)c3cccs3)cc2)n1`: the “% Inhibition” value is reported as -17% and the Z score is 2.06.

With `Cc1ccc(F)cc1CN1CC[C@H](O)C1`, the “% Inhibition” value is -3% and the Z score amounted to 0.25.

As for `Cc1ccccc1Cc1nc(-c2ccc(S(=O)(=O)N3CCC(C)CC3)cc2)no1`, the “% Inhibition” value is listed as -4% and the Z score is 0.72.

In the case of `O=C(c1cc2ccccc2o1)N(C(=O)N1CCCCC1)c1ccccc1`, the “% Inhibition” value is -6% and the Z score is given as 0.99.

On to `CC[C@@H](CCO)CNc1cnc(C(=O)OC(C)(C)C)cn1`, for which the “% Inhibition” value was -11% and the Z score is given as 1.38.

For the compound `Cc1ccc(-c2nnc(NC(=O)CN3CCOC3=O)s2)cc1`, the “% Inhibition” value is reported as -9% and the Z score was 1.67.

As for `COc1cc(CN2CCN(c3nc(CO)cs3)C[C@@H]2CCO)cc(OC)c1`, the “% Inhibition” value came out at 0% and the Z score was -0.06.

Take `CC1=C(C(=O)N2CCOCC2)[C@H](c2ccc(OCc3ccccc3)cc2)n2nc(C)nc2N1`: the “% Inhibition” value is -5% and the Z score is recorded as 0.61.

As to `O=C(NC1CCCCC1)N1CCC[C@H]1c1nc2cc(-c3ccccc3F)ccc2o1`, the “% Inhibition” value is given as -12% and the Z score turned out to be 1.3.

As for `CN(CCN1CCN(c2ccccc2)CC1)C(=O)C1=COCCC1`, the “% Inhibition” value worked out at 3% and the Z score was -0.3.

`Cc1cc(NC(=O)CN2CC[S@@+]([O-])CC2(C)C)no1`: the “% Inhibition” value was found to be 7% and the Z score is recorded as -0.9.

`O=c1ccc(S(=O)(=O)N2CCCCC2)cn1Cc1ccc(Cl)cc1`: the “% Inhibition” value is -9% and the Z score is recorded as 1.67.

Take `O=S(=O)(C1CCCCC1)N1CC(Oc2nccs2)C1`: the “% Inhibition” value is recorded as -5% and the Z score was 0.59.

For `Cc1ccc(S(=O)(=O)N(Cc2nccn2Cc2ccccc2C)C2CCCCC2)cc1`, the “% Inhibition” value is recorded as -10% and the Z score was 1.44.

As for `CCc1cccc(NC(=O)CNCc2cscn2)c1`, the “% Inhibition” value was -6% and the Z score is recorded as 1.15.

As to `Cc1nc(-c2cc(S(=O)(=O)NC(C)C)cn2C)sc1C(=O)N1CCCCC1`, the “% Inhibition” value is recorded as -13% and the Z score is 1.53.

In the case of `Cc1csc(NC(=O)COC(=O)[C@H](C)N2C(=O)c3cc(Cl)c(Cl)cc3C2=O)n1`, the “% Inhibition” value is 1% and the Z score is listed as -0.09.

On to `O=C(Nc1ccccc1C(=O)O)c1cc(Cl)c(Cl)c(S(=O)(=O)N2CCOCC2)c1`, for which the “% Inhibition” value is listed as -26% and the Z score was determined as 3.1.

In the case of `N#Cc1ccc(OC2CCN(C(=O)Nc3cccnc3)CC2)cc1`, the “% Inhibition” value is -17% and the Z score came to 2.11.

Consider `CCc1nc2cc(CNS(=O)(=O)C3CC3)ccc2n1C1CC1`, for which the “% Inhibition” value is on record as 14% and the Z score is recorded as -1.32.

For `O=C(NC(C1CC1)C1CC1)c1cncc(Br)c1`, the “% Inhibition” value is listed as -3% and the Z score is recorded as 0.53.

Turning to `Cc1nn(-c2ccccc2)c(Cl)c1[C@H]1Nc2ccccc2C(=O)N1c1ccccc1`, the “% Inhibition” value is reported as -24% and the Z score was 2.86.

As for `CC(C)n1cc(CNCCC(=O)Nc2cccnc2)cn1`, the “% Inhibition” value was -9% and the Z score is 0.82.

As to `CC[C@H](C)NC(=O)CCc1nnc(C(=O)Nc2ccc(F)cc2)s1`, the “% Inhibition” value is -1% and the Z score came to 0.27.

On to `CCCC1(C)C(=O)NCCN1C(=O)c1cc(N2CC(C)OC(C)C2)ccn1` (centres undefined), for which the “% Inhibition” value is reported as -33% and the Z score was 3.87.

Turning to `COc1ccccc1CNC(=O)C[C@H]1CCCN(c2cnn(C)c(=O)c2)C1`, the “% Inhibition” value is listed as -1% and the Z score is listed as 0.09.

In the case of `CN1CCC(n2ccc(NC(=O)N(C)Cc3ccc(F)cc3F)n2)CC1`, the “% Inhibition” value is recorded as 3% and the Z score is given as -0.38.

Regarding `CN(C)c1ccnc(NC(=O)NCC(F)(F)C(F)F)n1`, the “% Inhibition” value amounted to 1% and the Z score is given as -0.21.

Turning to `CC(=O)N1CCN(CC[C@H]2CN(C(=O)NC3CCCCC3)CC[C@H]2CC(=O)OC(C)(C)C)CC1`, the “% Inhibition” value was -6% and the Z score is recorded as 0.87.

On to `COC(CN(C)Cc1ncnn1C)OC`, for which the “% Inhibition” value is reported as -8% and the Z score stood at 1.24.

As to `O=S(=O)(Nc1cccnc1)N1CCCCC1`, the “% Inhibition” value turned out to be 3% and the Z score was -0.34.

Turning to `COc1ccc(CCNC(=O)N2CCC3(CC2)CN(C)CCN3C)cc1`, the “% Inhibition” value was determined as 0% and the Z score was -0.03.
